Test results: PubChem BioAssay (NCI)
A structure can be active in one record and inactive in another.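 Single-concentration screen, 48 h exposure, 96-well plates. Endpoint: percent growth. Below 10 = active.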 The source holds more than one record for some entries. This is not the full list of results. The source may hold further records. This drug was run again and again over the years, at its own concentration, as given; one value stands for one run. Signs of the kind (2×) stand for listed records that agree.

Key:
Assay in all cases: NCI-60 one-dose screen, 48 h (100 = growth as untreated, 0 = no growth, -100 = all killed)
SK-OV-3 ovarian = conditions: 2.5 mM
IGROV1 ovarian = conditions: 2.5 mM
OVCAR-3 ovarian = conditions: 2.5 mM; runs of 1991

Structure (SMILES): O=c1[nH]cc(F)c(=O)[nH]1
- growth (SK-OV-3 ovarian; runs of 1997): inactive: 40.8, 21.4, 16.8, 26.8, 21.5, 28.3, 28.6, 13.6, 46.5, 51.4, 27.4, 44.4, 33.6, 30.9, 23, 15.2, 32.1, 20.6, 28 (2×), 14.7, 36.7, 31.1, 14.8, 34.4, 32.2, 35.6, 17.1, 41.5, 17.4, 22.9, 10.1, 32.7, 27.8% and active: -16.5, -12.2, -29.7, -2.24, -7.44, -18.5, -17.2, -0.332, -0.267%
- growth (SK-OV-3 ovarian; runs of 1998): inactive: 18.6, 27.6, 19.8, 31.4, 39.6, 29.6 (2×), 17.7, 42.1 (2×), 25.5, 15.5, 19.2, 19.6, 44.1, 54.5, 33.5, 40.1, 35.9, 43.7, 36.4% and active: -36.7, -3.31, -1.06, -1.96%
- growth (SK-OV-3 ovarian; runs of 1999): inactive: 39.4, 32, 13.3, 21.5, 40.5, 12.4% and active: 0.524, 7.11, 4.81, -0.347, 4.51, 7.49, 3.52, 6.08, -49.6, 2.47%
- growth (SK-OV-3 ovarian; runs of 2000): active: 9.95, 4.78, 5.22, 3.72%
- growth (IGROV1 ovarian; runs of 1991): active: 2.88, -14.8, -21.4, -23.4, -26.2, 1.63, -3.64, -56, 0.59, -42.1, 8.14, -17.3, -37.1, -12.5, 4.55, -70.4, -25.4% and inactive: 25.3%, 13.7%
- growth (IGROV1 ovarian; runs of 1992): active: -5.17, 7.5, 1.56, 5.04, -67.4, -36.2, -12.4, -34, -43.3, 7.67, 7.04, 1.33, 9.6, -71.7, -82.2, -67.2, -39.8, 8.65, -21.7, -8.35, -20.8, 3.12, -6.08, -18.4, 0.492, 9.96, -55.3, 1.64, -79.3, -20.7, -23.4, -62.6, -65.8, -5.75, -12.8, 5.48, -25.8, -27.1, -22.5, -9.73, -9.01, 0.974, -29.8, -56.8, -65.9, -66.3, -10.9, -0.764, -1.69, 2.87, 0.647, 1.09, -33.7 (2×), -30, 7.78, -53.6, -26.4, -40, -13.7, -21.9, -31.9, -33.3, -6, 0.406, -3.7, -25, -34.5, -4.2, 2.46, -53.8, -49.1, -31.1, -36.7, -50.7, -66, -18.2, -35.1, 0.905, -25.3, -5.49, -39.7, 0.831, -33.1, -59.7, -48.6, -47.6, -2.98, -8.33, -20.2, -30.5, -23.6, -37.4, -3.22, -71.1, -20.9, -17.2, 1.03, -19.8, -47.9, -36.3, -5.81, -17.7, -19.9, 9.92, -53.4, -50.4, -23.7, 1.15, -50.5% and inactive: 13.9, 12.8, 29.6, 37, 18.3, 17.7, 10.1, 18%
- growth (IGROV1 ovarian; runs of 1993): active: -27.2, 0.809, -27.7, -14.5, -40.7, -24.9, -23.5, -35.8, -27.4 (2×), -46.4, -1.29, -30.2, 6.41, -5.11, -17.7, -37.7, -40.8, 8.74, 1.27, -5.28, -3.74, -44.6, 4.64, -45.8, -2.03, -21.4, -18.3, -15.1, -46.2, -68.7, -37.4, -71.4, 0.199, 2.53, -20.5, -55.7, 9.32, -12.6, -64.3% and inactive: 20.5, 13.7, 24.4, 98.5, 30.1, 13.6%
- growth (IGROV1 ovarian; runs of 1994): active: 6.85, -19.6, -20.3, -43.2, -55.6, -13.6, -27.1, -61.1, -32.8, 8.84, -48.9, 3.52, -19.3, 6.11, -3.09, 3.25, 4.75, -20, -19.2, -70.6, -8.96, 5.65, -7.29, -20.4, 5.42, 2.65, 7.23, 3.72, -4.73, 5.19, 0% and inactive: 34.4%, 13.9%, 13.8%
- growth (IGROV1 ovarian; runs of 1995): active: 4.92, -65.6, -29.3, -35.2, -18.8 (2×), 7.82, -50, 1.31, 4.66, 5.33, -42.2, -6.81, 7.93, 2.05, -44.5, -77, -28.8, -47, -16.6, -4.42, -24.1, -14.5, -6.45, 6.94, -14.9, -26.5, -38.7, -4.29, -34.5, -42.7, -48.5, -21.8, -10.7, -24, -31.5% and inactive: 12.1%, 104%, 11.6%
- growth (IGROV1 ovarian; runs of 1996): active: -21.3, -33.3 (2×), -19.4, 1.01, 0.816, -49.8, 4.34, -51.1, -13.2, -72.4, 8.54, -1.26, -7.78, -15, -36, 0.678, 5.09, -7.99, 7.36, 3.69, 3.34, 0.0921, 0.439, -11.2, -4.26, 6.81, -44.8, -20, -9.15, -1.72, -21.9, -41.3, 7.07, -9.41, 1.31, 6.85, -9.06, 8.79, 7.23, -8.36, 7.14, 7.81, 6.08, -8.85% and inactive: 12.5, 11.5, 11.7, 17, 10.2, 12.2, 19.6, 12.3, 21.8, 13.8, 13.2%
- growth (IGROV1 ovarian; runs of 1997): inactive: 14.1, 15.4, 27.8, 32, 18.5, 17.9, 11.2, 19% and active: -16.4, -6.32, 8.06, 5.08, 0, 7.39, 7.87, -25, 9.37, 0.277, -0.236, 9.82, -36.6, 4.03, -15.5, -43.2, 3.66, -41.4, 3.1, -5.5, 3.57, -4.07, 5.14, -0.22, -1.24, -1.98, 1.01, -6.09%
- growth (IGROV1 ovarian; runs of 1998): inactive: 10.7% (2×), 18.6%, 15.9% and active: 8.12, 7.28 (2×), 8.94, -10.9, -8.05, 3.4, 2.08 (2×), -19, 3.08, 0.853, -31.7, -4.88, 0.741, -25.8%
- growth (IGROV1 ovarian; runs of 1999): inactive: 42.2% and active: -34.6, -51.1, -35.5, -33.5, -25.2, -100 (2×), -82.9, 0.0509, 3.18, 0.925, -93.7, -94.6, -63.8, 1.8, -14.5%
- growth (IGROV1 ovarian; runs of 2000): active: -2.1, 1.6, -66.1, -72.3%
- growth (OVCAR-3 ovarian): active: -21.5, -34.3, -35.3, 2.84, -34.4, 9.41, -7.44, -3.16, -25.7, -11.7, -22.3, 0.81, -13.2, -14.3, -20.1, -22, -26.5, -45.1, -30.4% and inactive: 14.9%
